Assay results from PMC4336329 (PLoS ONE, 2015).
Out of some 310,000 compounds screened, about 14,000 (4.5%) showed an effect of 50% or more. Effects have a minus sign here. This is one part of the list.

molecular target: human ether-à-go-go-related gene (hERG) potassium channel (human, UniProt Q12809); experiment: primary screen, population patch clamp on CHO cells stably expressing hERG
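Further: peak tail current of the secondary pulse compared with the same well before compound.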

Chain of human ether-à-go-go-related gene (hERG) potassium channel (Q12809 whole entry, looked up): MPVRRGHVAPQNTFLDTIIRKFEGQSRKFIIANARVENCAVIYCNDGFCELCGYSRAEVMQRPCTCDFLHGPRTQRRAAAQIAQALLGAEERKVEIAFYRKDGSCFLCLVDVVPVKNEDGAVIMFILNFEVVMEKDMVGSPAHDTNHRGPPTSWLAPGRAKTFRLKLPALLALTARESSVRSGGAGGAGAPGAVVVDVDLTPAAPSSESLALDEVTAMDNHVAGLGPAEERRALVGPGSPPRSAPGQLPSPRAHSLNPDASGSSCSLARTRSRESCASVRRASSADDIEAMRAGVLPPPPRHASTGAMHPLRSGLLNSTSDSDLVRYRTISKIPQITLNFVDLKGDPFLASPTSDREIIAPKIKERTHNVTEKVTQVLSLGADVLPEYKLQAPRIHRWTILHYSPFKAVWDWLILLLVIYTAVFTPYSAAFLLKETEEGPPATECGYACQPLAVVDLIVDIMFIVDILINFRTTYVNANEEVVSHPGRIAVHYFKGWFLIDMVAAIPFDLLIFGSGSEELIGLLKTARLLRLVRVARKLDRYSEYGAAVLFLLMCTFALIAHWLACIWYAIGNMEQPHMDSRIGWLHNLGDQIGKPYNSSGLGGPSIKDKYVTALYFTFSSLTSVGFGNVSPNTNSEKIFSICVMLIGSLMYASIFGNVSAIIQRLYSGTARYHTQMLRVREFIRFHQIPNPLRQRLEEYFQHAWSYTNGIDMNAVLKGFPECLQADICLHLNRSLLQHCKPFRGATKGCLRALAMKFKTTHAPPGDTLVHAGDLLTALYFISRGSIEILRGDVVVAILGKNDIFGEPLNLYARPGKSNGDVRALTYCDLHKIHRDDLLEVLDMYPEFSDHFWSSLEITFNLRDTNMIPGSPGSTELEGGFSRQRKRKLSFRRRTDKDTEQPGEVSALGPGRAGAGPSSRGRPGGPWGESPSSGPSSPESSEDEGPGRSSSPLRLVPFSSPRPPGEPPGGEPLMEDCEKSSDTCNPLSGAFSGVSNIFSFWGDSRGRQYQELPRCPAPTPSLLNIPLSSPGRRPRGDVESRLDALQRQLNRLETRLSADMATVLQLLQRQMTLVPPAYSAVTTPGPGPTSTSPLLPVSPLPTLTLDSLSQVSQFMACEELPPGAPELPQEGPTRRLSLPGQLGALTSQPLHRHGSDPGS

SMILES | hERG current change (%, negative = inhibition) at 10uM [%]
COc1ccccc1C(=O)NC(=O)COC(=O)c1ccco1 | -6.51
Cc1ccc(C(=O)NCc2ccccn2)o1 | 4.94
CCCn1c(Nc2ccccc2C)nc2ccccc21 | -5.28
C/C(=N\NC(=O)c1cc(Br)ccc1O)c1cccs1 | 16.6
COc1ccc(/C=C/c2nc(S(=O)(=O)c3ccccc3)c(NCCCN(C)C)o2)cc1OC | -33.7
COc1ccc(-c2csc(NC(=O)CSCC(=O)Nc3cc(C)on3)n2)cc1OC | 1.07
COc1cc(OC)cc(-c2c(-c3cccs3)c3cc(-c4ccn[nH]4)ccc3n2C)c1 | 7.72
CC1=Nc2cc(C(=O)N3CCCC3)ccc2Sc2ccc(C)cc21 | -16.1
Clc1ccccc1OCCN1CCC(Cc2ccccc2)CC1.O=C(O)C(=O)O | -73.4
COc1ccc(/C=N/NC(=O)CNS(=O)(=O)c2ccccc2)cc1 | -3.32
CC(C)c1nc2sc3c(=O)n(N)cnc3c2c2c1COC(C)(C)C2 | 7.46
CCCCNCCCCOc1ccccc1 | -0.921
CCC(=O)Nc1ccc(Cl)c(NC(=S)NC(=O)COc2ccc(Cl)cc2)c1 | 2.45
Fc1ccccc1-c1n[nH]c(=S)n1C1CC1 | 20.6
CCN(CC)S(=O)(=O)c1ccc(/C=C/C(=O)Nc2ccc(F)c(F)c2F)cc1 | -10.4
CC(C(=O)Nc1nc2ccccc2s1)n1cc([N+](=O)[O-])cn1 (stereo not shown) | -69.5
Cl.Fc1ccc(C(c2nnnn2Cc2ccco2)N2CCN(C3CCCCC3)CC2)cc1 (stereo not shown) | -65.6
CCOC(=O)C(C)Sc1nc2ccccc2c(=O)n1CC (stereo not shown) | -22.4
N/C(=N\OC(=O)C1CCCCC1)c1ccc(Br)cc1 | 19.9
Cc1nn(C)cc1/C=N/NC(=O)Cn1nccc1C | -1.28
CCOC(=O)N1CCN(C(=O)Nc2ccccc2)CC1 | -0.0218
CCn1c(N)c(C(=O)Nc2ccccc2C(=O)OC)sc1=S | 15.3

SMILES | hERG current change (%, negative = inhibition) at 10uM [%]
COc1ccc(-c2nc(CS(=O)(=O)CC(=O)NCc3ccc4c(c3)OCO4)c(C)o2)cc1 | 18.9
O=c1c2ccccc2nnn1Cc1nnc(-c2ccccc2Br)o1 | -25.3
CCOC(CCNC(=O)c1cc(-c2cccs2)nc2ccccc12)OCC | 1.87
N/C(=N\OC(=O)c1cccc(F)c1)c1ccccn1 | 23.8
CC(C)CC(=O)Nc1nnc(S(=O)(=O)N(C)c2ccc(Cl)cc2)s1 | 20.9
COc1ccc(/C=C/c2nc(-c3ccccc3O)n[nH]2)cc1OC | 12.1
CCC(CO)Oc1cc(NC(=O)c2cccc(Cl)c2)c2ncn(C(C)C)c2c1 (stereo not shown) | 19.7
COC(=O)C1(C(=O)OC)NOC2C(=O)N(c3ccccc3)C(=O)C21 (stereo not shown) | -3.39
Cc1cccc(C)c1OCc1n[nH]c(=S)o1 | 16.5
COc1ccc(NC(=O)C2CCCN(S(=O)(=O)c3cccc4cccnc34)C2)cc1OC (stereo not shown) | -12.3
CN=c1scc(C)n1/N=C/c1ccc2c(c1)OCO2 | 9.55
Cc1cccc(C)c1OCc1cc(C(=O)N2CCCCCCC2)no1 | -0.442
C=CCNC(=O)c1onc(CSc2ccc(F)cc2)c1C(=O)NCC=C | -15.8
COc1ccc(N2CCN(C(=O)COC(=O)c3ccccc3OCc3ccc(F)cc3)CC2)cc1 | 3.18
CC(C(=O)NC1C(=O)N2C(C(=O)O)=C(CSc3nnnn3C)CSC12)n1cc(Cl)cn1 (stereo not shown) | 11.9
COC(=O)CSc1nnc(-c2ccc(S(=O)(=O)NCc3ccccc3Cl)cc2)o1 | 7.04
CC(=O)c1ccc(N2CCN(S(=O)(=O)c3c(C)[nH]c(C)c3C(=O)N3CCCC3)CC2)cc1 | -45.9
CC(C)(C)C(=O)[C@@H]1[C@@H]2C(=O)N(c3ccc4c(c3)OCCO4)C(=O)[C@@H]2C2c3ccccc3C=CN21 (stereo partly shown) | -20.5
CCOC(=O)c1[nH]c(C)c(C(=O)NC(C)CC)c1C (stereo not shown) | 8.1
CCOc1ccc(OCC(=O)NCCS(=O)(=O)N2CCN(c3ccc(F)cc3)CC2)cc1 | -11.7
Nc1ccc(Oc2ccc3c(c2)C(=O)N(CC2CCCO2)C3=O)cc1 (stereo not shown) | 3.91
